# Over roughly 33,000 sequences, “E-score (-0.5 to 0.5)” has its median near -0.04; the highest 2% begin near 0.36. The list shows a part of the results.
# Target: T1, Hmlalpha2 (UniProt P0CY09)
# T1 sequence: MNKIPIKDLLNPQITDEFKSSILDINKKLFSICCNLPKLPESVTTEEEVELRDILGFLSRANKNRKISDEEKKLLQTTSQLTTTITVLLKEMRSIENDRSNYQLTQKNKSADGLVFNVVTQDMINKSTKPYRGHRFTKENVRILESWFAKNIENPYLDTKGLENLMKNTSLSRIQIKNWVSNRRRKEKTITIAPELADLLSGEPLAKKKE
# Test: PBM E-score (8-mer binding enrichment) (E-score (-0.5 to 0.5)); higher = stronger / more preferred TF binding; most listed sequences are background and not binding sites
# Conditions: protein concentration: 200 nM; construct: GST-full length
# In short: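 Detection of bound protein used fluorescent anti-GST, with scans normalised by masliner. The proteins were GST-tagged yeast transcription factors applied at about 100-200 nM to universal all-10-mer Agilent arrays made double-stranded by primer extension. Each ungapped eight-base word, pooled with its reverse complement, was scored with an E-score from the Universal PBM Analysis Suite.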
row,Sequence,PBM E-score
1,CATTCTGC,-0.173
2,GTCTCGTA,0.0905
3,GAGGATCC,-0.149
4,ACACATGC,0.306
5,GAATGACC,-0.306
6,AATAGTTA,0.046
7,ACGCCTAC,-0.0784
8,CCTTCCGC,-0.259
9,CCTCCAAG,-0.13
10,AATCGATA,0.169
11,AGGCACCA,-0.167
12,ACTCATCA,-0.0754
13,ACCGTTAT,-0.0712
14,AGAGCCCG,-0.242
15,GAACACCA,0.0348
16,ATTAACAA,0.415
17,TCGATAGA,-0.00433
18,CACATCTC,-0.0163
19,TCGTTAAA,0.126
20,TCATCAAA,-0.0188
21,ACCCATCC,-0.208
22,CATTAGTA,0.152
23,AAGTGGGG,-0.313
24,AGCACTTC,0.148
25,GAGCAATA,-0.186

row,Sequence,PBM E-score
1,ACAGGAAT,0.0217
2,TGGGTGAA,0.119
3,GACCAGGA,-0.197
4,GCGGCTAA,-0.128
5,CACCTGAG,-0.146
6,CGAATATC,-0.0497
7,AGGATAAG,-0.147
8,TATTCTAA,0.186
9,TTCATCAA,0.0435
10,TAGCATGA,0.227
11,CGATCGAC,0.049
12,ATTCAATA,0.166
13,CAGACCCG,-0.151
14,ACGGGCAA,-0.174
15,ATCAGTAC,0.155
16,CTACTATC,0.0556
17,GTCTAAAC,0.107
18,CAATTCAG,-0.106
19,TTCGTCAA,0.0293
20,AAGAACGT,0.215
21,CCCCATGC,-0.0157
22,CTAGCGAG,-0.149
23,AGGTAAGA,-0.0177
24,ATCAACAT,0.44
25,CCAGTCCC,-0.223

row,Sequence,PBM E-score
1,ATTTTCAC,0.151
2,CAGCGTGC,-0.0313
3,TGCCTCCA,-0.233
4,AAGCCAAC,0.00741
5,AATTATAG,0.12
6,GCGTATGA,0.164
7,AACCAATG,0.0425
8,AGGACTTG,-0.11
9,GCGAAGGA,-0.11
10,GTATAGGA,0.0557
11,GCCCCAGC,-0.329
12,AAGTTCCC,-0.296
13,TGCTGCCA,-0.206
14,CCCATCAA,-0.0626
15,CACCTTCC,-0.11
16,ATTCCACA,0.148
17,AAAGTCTA,-0.0317
18,ACTGACGC,-0.128
19,GAGAACAA,0.0893
20,ATCATCTC,-0.0434
21,TGAATCAA,0.211
22,ACGTAGAA,0.33
23,GTTCAACA,0.367
24,AAACACCA,-0.0494
25,ACGGCCCA,-0.252

row,Sequence,PBM E-score
1,ATTGGGCA,-0.112
2,CAGTCTAG,-0.148
3,AGTTTCCG,-0.0968
4,CTAGGTCA,-0.0803
5,ATCGCTGG,-0.18
6,CGCCCGGA,-0.244
7,GGTTCCAC,-0.225
8,CACTGCAA,0.0779
9,ACGTCGCT,-0.0609
10,TAAGGTCA,-0.0749
11,AATCGGCG,-0.00313
12,CCATAAGG,-0.32
13,ACCCCTAA,-0.267
14,ACAAAGGT,0.0752
15,ACAAACGT,0.206
16,ACACACAA,0.313
17,CGAGCGCC,-0.271
18,CCGGTTCG,-0.303
19,CGAGGACC,-0.0457
20,AGCTGAGG,-0.214
21,GATGCAGA,-0.187
22,CTAACGAG,-0.00199
23,CCTGAACG,-0.0873
24,CCAACCGA,-0.166
25,AGGCCCCA,-0.359

row,Sequence,PBM E-score
1,CACTAGAC,-0.139
2,AGCTCACA,0.0488
3,ATAGTGCA,0.0575
4,ACTGCTAA,-0.206
5,GGATCCTA,-0.154
6,AGCTTTAT,0.111
7,ATTTCCAA,-0.0363
8,CTCGCGGA,-0.345
9,CCATCCAG,-0.194
10,GACATTGA,0.0783
11,AAATAGCA,0.0943
12,AGCCATGC,0.0383
13,AGATGGGG,-0.263
14,AACTTAGA,0.105
15,ACGAGCGT,0.028
16,CGTCTGGA,-0.162
17,GCACGAAC,0.194
18,CCATCTAA,0.0202
19,GGAATCAC,-0.0376
20,AGAGCACG,0.0212
21,AACACTAA,0.189
22,GATAAGGA,0.0436
23,GGAAATGA,-0.0675
24,AACAACTG,0.0985
25,AATCACGT,0.239

row,Sequence,PBM E-score
1,CGCTAGCA,-0.0248
2,ATGTCGGG,0.2
3,CAGATCGA,-0.0764
4,AGGCCGAG,-0.104
5,TGGCTGAA,-0.197
6,CTCCAAAG,-0.0343
7,AAGATGCC,-0.25
8,ACTTTAGC,-0.225
9,AGGGGAAC,-0.373
10,CATAAACC,0.017
11,CCTACTCG,-0.202
12,AGGTATGG,-0.317
13,GATACATC,0.169
14,AAAAAACT,0.0379
15,ATGTCTAC,0.179
16,ATGTTGGA,0.29
17,GCTTTCCA,-0.0557
18,GGTTTTCA,0.14
19,CATTTCCC,0.00326
20,TACTCTGA,-0.128
21,ATAATGCC,-0.127
22,CGTCCTAA,-0.108
23,GCGTGCAC,-0.102
24,CATAACGG,-0.136
25,GACCTAGA,-0.12

row,Sequence,PBM E-score
1,CGCGTTAC,0.212
2,TTCTAAAA,0.0933
3,GTTAAAAC,0.343
4,CCTGTCAG,-0.241
5,AAGTAGCA,-0.0251
6,ATGGAACC,-0.167
7,ACTGCGCC,-0.258
8,AGGATTTC,-0.195
9,ACGGGTCT,-0.217
10,AAAATACA,0.334
11,CGAATAGC,-0.115
12,CAGTCACC,-0.208
13,GAAGGGCA,-0.288
14,ATAACAAA,0.302
15,ACCTTGTG,0.17
16,ACAACTTA,0.228
17,AGACAGGG,-0.282
18,GTCCGTTA,-0.0125
19,AGCCTGTG,-0.0945
20,ATCTCTAC,0.104
21,GACTTTAA,-0.0185
22,CACTGCCG,-0.165
